# Measurements from PMC12136788.
# This is one part of the list.
# B1: chr5:136174412:136174513:+|CDS|ENSG00000113658|unk|total|mutant (ssRNA)
# RNA: GGGAGUUCUACAGUCCGACGAUCUAUGUUGGUGGAGAGGUGUAUGCGGAAUGCCUCAGUGACAGCAGCAUAUUUGUACAGAGCCGGAACUGCAACUUUCAUCAUGGCUUUCAUCCCACCACUGUCUGUAAGAUUCCCAGCAGCCAACAGAGGAUUGAGCAUCA
# B2: chr16:74623592:74623693:-|3pUTR|ENSG00000168411|msi1|total|mutant (ssRNA)
# RNA: GGGAGUUCUACAGUCCGACGAUCCCAUUAUUGUAUGUUGGAAAUUCUUAUUUUCUUUAUUUUCUGUGUGACUUUCUGGACCUCCGAGAGUGUCCUCUCAUCAUCCCGGAUGUGAGUGGGCAUCAAGCAUUUUCUGGGGAAUAUCAACAGAGGAUUGAGCAUCA
# B3: chr1:67426168:67426278:-|CDS|ENSG00000142864|unk|FALSE|unique (ssRNA)
# RNA: GGGAGUUCUACAGUCCGACGAUCAUAAGACGAGUUGGAAGAAGACCUGAUCAACAACUUCAGGGUGAAGGGAAAAUAAUUGAUAGAAGACCAGAAAGGCGACCACCUCGUGAACGAAGAUUCGAAAAGCCACUUGAAGAAAAGCAACAGAGGAUUGAGCAUCA
# B4: ENSG00000145990:stop:overlap|stop_codon|ENSG00000145990|stop_codon|NA|stop_codon (ssRNA)
# RNA: GGGAGUUCUACAGUCCGACGAUCUGAGCCCCGCCUACCUGAUCAGCGAGGCCAUGCGCCGCAGCAGGAUGUCCCUCUACUGUUAGCACAGAUUGAGAACCUCGGGGACUUGAGCCUUCUGCAGGGGAUGUCCACAGAGAGGGACAACAGAGGAUUGAGCAUCA
# B5: chr11:46383557:46383658:+|3pUTR|ENSG00000110492|msi1_unk|FALSE|overlapping (ssRNA)
# RNA: GGGAGUUCUACAGUCCGACGAUCCCACGCCCUCCCUCUCCCAGGCCCGAGAUGUGACCCACCAGUGCCUUCUGUCUGCUCGUUAGCUUUAAUCAAUCAUGCCCUGCCUUGUCCCUCUCACUCCCCAGCCCCACCCCUAAGUGCCAACAGAGGAUUGAGCAUCA
# B6: chr17:63423787:63423888:+|3pUTR|ENSG00000170921|msi1|FALSE|bound_elsewhere (ssRNA)
# RNA: GGGAGUUCUACAGUCCGACGAUCCUAACUCAAGCCCCAGCCUCUUUCCACACUCCCUGAUACCUAAGGACUGCUUUCUCAGCUAGACCAGGGUGGGCAUCAGCGACGCCUUCUCAGCUAGACCAGGGUAGGCAUCAGCGUCCUCAACAGAGGAUUGAGCAUCA
# B7: chr11:102396659:102396760:-|3pUTR|ENSG00000152558|msi1_unk|total|mutant (ssRNA)
# RNA: GGGAGUUCUACAGUCCGACGAUCCUUUUUCUCUGUAUGUAAGCCGUAUAAUUUGUUACUUUCAAAUACCCGUACUUUGAAUGCCGGUUUUUUUGUUGUUGUUAUCUAUAAAAAUUGAGGGAAAUGGUUAUGCAAAAAAAUAUUCAACAGAGGAUUGAGCAUCA
# B8: chr16:46798953:46799054:-|3pUTR|ENSG00000155330|unk|total|mutant (ssRNA)
# RNA: GGGAGUUCUACAGUCCGACGAUCUCUAUAUUUUUUUCUUUGCCUUAUUGCACUGGUUGGGACUUUUUGCCUUGAUCCAGUUGCCGGGGGGAAACAUUCAGUCAUUAAGCAUUAAAUAACUUUGUUGUUGUUGUGGGCUUGAAACAACAGAGGAUUGAGCAUCA
# B9: chr17:67075675:67075776:-|3pUTR|ENSG00000198265|unk|FALSE|unique (ssRNA)
# RNA: GGGAGUUCUACAGUCCGACGAUCAUUCCUUAUUUCCAUAGCCAGUCAAGGAUUCUAACGCUGCUUCCAUCUGAUACUCUUCUUAGAUUCUGCAUCAAAUGCUUAUUUUGACUUACAACAAGCUUACUCUUCCUCAGCAUUACACAACAGAGGAUUGAGCAUCA
# B10: chr3:89481969:89482070:+|3pUTR|ENSG00000044524|msi1|FALSE|unique (ssRNA)
# RNA: GGGAGUUCUACAGUCCGACGAUCAUAUGUGUUUACUUUAAACUUGUCUUUUCAAAAUAUUACUCAGUUUAUGUUGUACAAUGUAGAUGGCCUCUUACUAAUGUAAAAUGAUUUGUAGUGGAAACAUUUAUAUUUUUAUAAUAACAACAGAGGAUUGAGCAUCA
# B11: ENSG00000164985:stop:overlap|stop_codon|ENSG00000164985|stop_codon|NA|stop_codon (ssRNA)
# RNA: GGGAGUUCUACAGUCCGACGAUCAGCCAUCCAGUGAAGAGAGAGAGACUGAAAUAUCUCUGAAGGAUUCUACACUAGAUAACUAGGUUGACAUACCUGGAAUAUAGAGAACACUUGAGAAGUUUGUAAUGGUUUUCAUUUGAACAACAGAGGAUUGAGCAUCA
# B12: chr6:43186014:43186115:+|CDS|ENSG00000112659|msi1|total|mutant (ssRNA)
# RNA: GGGAGUUCUACAGUCCGACGAUCCUGCUUUUCUCCUUGGUGAAGCGCUACCUUUGUGUCACGUCCCUCCUGGAUCAGCUGAACCGCAGUCCAGAGCUGGGAGCUGGAGACCAAAGCUCCCCAUGUGCCACAAGAGAGAAAAGCCAACAGAGGAUUGAGCAUCA
# B13: chr3:49886901:49887562:-|three_prime_utr|ENSG00000164078|control|control|control (ssRNA)
# RNA: GGGAGUUCUACAGUCCGACGAUCCCAAGUGAUGCAGCAAUGCUGGGAGGCAGACCCAGCAGUGCGACCCACCUUCAGAGUACUAGUGGGGGAGGUGGAGCAGAUAGUGUCUGCACUGCUUGGGGACCAUUAUGUGCAGCUGCCCAACAGAGGAUUGAGCAUCA
# B14: chr12:1788447:1788559:+|3pUTR|ENSG00000006831|unk|total|mutant (ssRNA)
# RNA: GGGAGUUCUACAGUCCGACGAUCUUUCUUUUUUGGCCCCCGGCUGGUUGGGACCUCUACAGCUUCAUUCUUUCACCAUUAAACCGUGGCCUUUUUCAGUAUUUUCCCUCUUCCCCUUUAUAAAUUAUGCUAAAGCCACAAAGCCAACAGAGGAUUGAGCAUCA
# Target: T1, UNK ZnF1-6 (called full-length) (human, UniProt Q9C0B0 30-357)
# T1 sequence: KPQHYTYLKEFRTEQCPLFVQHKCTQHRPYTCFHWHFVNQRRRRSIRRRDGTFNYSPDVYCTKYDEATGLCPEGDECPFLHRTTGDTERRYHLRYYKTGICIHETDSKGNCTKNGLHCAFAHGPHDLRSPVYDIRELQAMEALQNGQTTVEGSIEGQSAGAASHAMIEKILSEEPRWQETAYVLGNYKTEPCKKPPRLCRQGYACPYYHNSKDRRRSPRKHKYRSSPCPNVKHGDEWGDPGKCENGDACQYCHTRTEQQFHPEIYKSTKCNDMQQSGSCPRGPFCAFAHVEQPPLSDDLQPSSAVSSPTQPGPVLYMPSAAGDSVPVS
# Experiment: nsRBNS (natural sequence RNA bind-n-seq); RBNS binding buffer (assumed for nsRBNS): 25 mM Tris pH 7.5, 150 mM KCl, 3 mM MgCl2, 0.01% Triton X-100, 500 ug/ml BSA, 20 U/ml SUPERase-In, 4 C; UNK is unkempt and MSI1 is Musashi-1; names of the RNAs are library labels; protein concentration not given here; high values mean tight binding
row,Binder,binding signal
1,B1,0.849 enrichment R
2,B2,0.651 enrichment R
3,B3,0.71 enrichment R
4,B4,0.325 enrichment R
5,B5,3.87 enrichment R
6,B6,0.982 enrichment R
7,B7,0.897 enrichment R
8,B8,0.654 enrichment R
9,B9,1.05 enrichment R
10,B10,1.68 enrichment R
11,B11,2.89 enrichment R
12,B12,0.544 enrichment R
13,B13,0.753 enrichment R
14,B14,0.797 enrichment R
